Reference: PubChem BioAssay (NCI)
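1) Cells in 96-well plates. 2) Compound, 48 h, 5 concentrations. 3) Linear interpolation between surrounding doses. 4) Unreached endpoint = highest concentration. GI50: concentration for 50% inhibition of growth.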 A number of entries come with more than one value. The other results are left out here. There may be further records. Records of one sample usually come from different ranges of test concentrations, which the source does not state; some values may only mark the edge of a range.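 TGI is the concentration that stops growth completely.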

How the values were obtained:
Assay in all cases: inhibition of tumour cell growth, NCI panel, 48 h
[1] = system: CCRF-CEM leukemia
[2] = system: DMS 273 small cell lung
[3] = system: HCT-116 colon
[4] = system: IGROV1 ovarian
[5] = system: KM12 colon
[6] = system: LXFL 529 NSCLC
[7] = system: MCF7 breast
[8] = system: MDA-MB-231 breast
[9] = system: NCI-H522 lung
[10] = system: OVCAR-4 ovarian
[11] = system: PC-3 prostate
[12] = system: SF-268 CNS
[13] = system: SK-OV-3 ovarian
[14] = system: SNB-78 CNS
[15] = system: U251 CNS
[16] = system: HCT-15 colon
[17] = system: HT29 colon
[18] = system: OVCAR-3 ovarian
[19] = system: SF-539 CNS

`CC[C@H]1CN2CCc3cc(OC)c(OC)cc3[C@@H]2C[C@@H]1C[C@H]1NCCc2cc(O)c(OC)cc21` was tested, and the TGI [1] was 73 nM and 5.09 µM, the TGI [2] was 52.4 nM, 10.4 nM [1 test] and 246 nM [mean of 2 tests] and the TGI [3] was 55.2 nM and 1.94 µM. The TGI [4] was 85.3 nM, 72.4 nM [mean of 2 tests] and 820 nM [mean of 3 tests], the TGI [5] was 43.3 nM [1 test] and 71.2 nM [mean of 2 tests] and 688 nM [mean of 4 tests] and the TGI [6] was 46.3 nM and 874 nM. The TGI [7] was 80.7 nM, > 100 µM [1 test] and 66.4 nM [mean of 4 tests], the TGI [8] was 31.1 nM and > 100 µM and the TGI [9] was 11.2 nM [mean of 2 tests] and 160 nM [mean of 5 tests]. For the same compound, the TGI [10] was 22.5 nM [mean of 2 tests] and 800 nM [mean of 3 tests], the TGI [11] was 83.1 nM and > 100 µM and the TGI [12] was 83.4 nM, 168 nM [mean of 2 tests] and 957 nM [mean of 3 tests]. The TGI [13] was 68.4 nM [mean of 2 tests] and 976 nM [mean of 3 tests], the TGI [14] was 74.8 nM, 3.78 µM [1 test] and 1.07 µM [mean of 4 tests] and the TGI [15] was 76.7 nM, < 18 nM [mean of 2 tests] and 241 nM [mean of 4 tests].

`CC1/C=C/C=C/C=C/C=C/C=C/C=C/C=C/C(O[C@@H]2O[C@H](C)[C@H](O)[C@@H](O)[C@@H]2N)CC(O)C(C(=O)O)C(O)CC(=O)CC(O)CC(O)CC(O)CC(=O)CCCC(=O)CC(=O)OC1C(C)CC(C)C(O)CC(=O)c1ccc(N)cc1` (stereo partly specified) was tested, and the GI50 [16] was 65.7 nM and 1.12 µM, the TGI [16] was 142 nM and 2.36 µM and the TGI [17] was 105 nM and 1.16 µM. The TGI [5] was 154 nM and 1.88 µM, the TGI [18] was 123 nM and 1.28 µM and the TGI [19] was 125 nM and 1.74 µM.
